Experimental data taken from PubChem BioAssay AID1345082 (National Center for Advancing Translational Sciences (NCATS), 2018).
Out of some 94,000 compounds screened, about 4,000 (4.3%) were called active. The shares of active, inactive and inconclusive entries below differ from those in the screen. Calls come from the whole dose curve; as a rule, active = well fitted inhibition curve with a large enough effect; inconclusive = small, poorly fitted or top-dose-only effect; inactive = no such curve, though single readings can be large or run the other way. Potencies of inconclusive entries are doubtful fits and often do not repeat.

Experiment: Cytotoxic Profiling in NIH 3T3 Cell Line of Diverse Libraries Using Quantitative High-Throughput Screening; note: nearly all actives have a fitted effect of over 55% in size
Conditions: NIH 3T3 viability, CellTiter-Glo ATP luminescence, 48-72 h; activity change, negative = cytotoxicity: at 96.7 µM (top of the series); series mostly up to 96.7 µM
How it was run: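 Cells were seeded at 400 per well, treated with pin-transferred compound, and kept 48 or 72 hr at 37 °C before CellTiter-Glo addition and luminescence imaging of cellular ATP.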
% is set by controls: 0 for no effect and ±100 for the full control effect; potency is the fitted concentration of half-maximal effect; tags give direction and shape of the fitted curve.

**Q.** For CCOC1CCOC2(CCN(C(=O)c3ccc4c(c3)OCO4)CC2)C1 (stereo not drawn), which “activity change, negative = cytotoxicity” value is on record?
**A.** Its value is inactive: -20.3%.

**Q.** Which Potency does the source give for CNc1c(-c2noc(C)c2C(=O)NCCCOC)cnn1C here?
**A.** The Potency was inconclusive: 112 µM [inhibitor, single point].

**Q.** Which Potency does the source give for COc1cc(CN2CCC(C)(NC(C)=O)CC2)cc(-c2ccccc2)c1 here?
**A.** The Potency was inconclusive: 100 µM [inhibitor, single point].

**Q.** For COc1cccc(C(=O)N2CCN(c3cc(-c4ccc(F)cc4)[nH]n3)CC2)c1OC, which Potency is on record?
**A.** Its Potency is inconclusive: 22.4 µM [inhibitor, full curve].

**Q.** For O=C(C1CC1)N1CCN(CCCn2nc3n(c2=O)CCCC3)CC1, which “activity change, negative = cytotoxicity” value is on record?
**A.** Its value is inactive: -6.89% [at 138 µM].

**Q.** Which Potency does the source give for Cc1ccccc1-c1cn(C)c(=O)n2cc(CNc3ccccc3)nc12 here?
**A.** The Potency was inconclusive: 89.1 µM [inhibitor, partial curve].

**Q.** Which “activity change, negative = cytotoxicity” value does the source give for CN(CCC1CCCCO1)C(=O)Cn1ccc2ccccc2c1=O (stereo not drawn) here?
**A.** The value was inactive: 4.22%.

**Q.** For CN1C[C@H](NCc2ccc(F)cc2)CCC[C@@H](C(=O)N(C)Cc2cccnc2)CC1=O, which “activity change, negative = cytotoxicity” value is on record?
**A.** The value was inactive: -13.3% [at 174 µM].

**Q.** Which Potency does the source give for COc1ccc(-c2cc(N3CCC(NC(=O)c4cc(C)ccc4C)C3)n[nH]2)cc1 (stereo not drawn) here?
**A.** The Potency was inconclusive: 50.1 µM [inhibitor, partial curve, poor fit].

**Q.** Which Potency does the source give for O=C(NCc1ccccc1F)c1nc2sccn2c1-c1ccncc1 here?
**A.** Its Potency is inconclusive: 39.8 µM [inhibitor, partial curve].

**Q.** With COc1ccc(CC(=O)N[C@H]2C[C@@H](c3nc(-c4ccc(OC(F)(F)F)cc4)no3)N(C)C2)cc1 as the molecule, how does the Potency read?
**A.** Its Potency is inconclusive: 28.2 µM [inhibitor, full curve].

**Q.** Which Potency does the source give for Cc1nn(-c2ccc(F)cc2)c(Oc2ccccc2)c1CCC(=O)NCC1CC1 here?
**A.** The Potency was inconclusive: 50.1 µM [inhibitor, partial curve, poor fit].

**Q.** With Cc1nc(C)c(C(=O)N2CC(Oc3ccccc3-c3nc(C4CC4)no3)C2)s1 as the molecule, how does the Potency read?
**A.** The Potency was inconclusive: 44.7 µM [inhibitor, partial curve, poor fit].

**Q.** For CCN(Cc1ccncc1)C(=O)CC(c1ccccc1)c1ccc2c(c1)OCO2 (stereo not drawn), which “activity change, negative = cytotoxicity” value is on record?
**A.** Its value is inactive: -22.5%.

**Q.** For CS(=O)(=O)CCN1CCN(C(=O)c2cccc(-c3ncc[nH]3)c2)CC1, which “activity change, negative = cytotoxicity” value is on record?
**A.** The value was inactive: -11.2%.

**Q.** For Cc1ccc(C(=O)N2CCn3c(nn(-c4ccncc4)c3=O)C2)cc1, which Potency is on record?
**A.** The Potency was inconclusive: 39.8 µM [inhibitor, partial curve, poor fit].

**Q.** Which “activity change, negative = cytotoxicity” value does the source give for CC(C)n1c(C2CCCN(C(=O)CCc3ccccc3)C2)nn(C)c1=O (stereo not drawn) here?
**A.** Its value is inactive: -15.9%.

**Q.** Which Potency does the source give for Cc1ccc2c(C(=O)N3CCCC(C#N)C3)cc(-c3cnn(C(C)C)c3)nc2c1 (stereo not drawn) here?
**A.** The Potency was inconclusive: 89.1 µM [inhibitor, partial curve, poor fit].

**Q.** Which Potency does the source give for COCc1ccc2c(c1)c(OC(C)(C)C(N)=O)nn2CCC(C)C here?
**A.** The Potency was inconclusive: 89.1 µM [inhibitor, partial curve].

**Q.** For CCCN1CCN(C(=O)c2cc(NC(=O)C3CCC3)cc3nc(C)ccc23)CC1, which Potency is on record?
**A.** The Potency was inconclusive: 70.8 µM [inhibitor, single point].

**Q.** With CN1CCC(Nc2ncc(C(C)(C)C(=O)O)c(N3CCOCC3)n2)CC1 as the molecule, how does the “activity change, negative = cytotoxicity” value read?
**A.** Its value is inactive: -8.52%.

**Q.** For O=C(c1ccc(F)cc1)N1CCCN(CCn2nc3n(c2=O)CCCC3)CC1, which “activity change, negative = cytotoxicity” value is on record?
**A.** Its value is inactive: 1.13%.

**Q.** Which Potency does the source give for C[C@H]1[C@@H]2[C@@H](O)C([C@H](C)C(=O)NCc3ccc(F)cc3)CC[C@@]2(C)CC[C@@H]1NC(=O)c1ccccc1 (stereo partly drawn) here?
**A.** The Potency was inconclusive: 70.8 µM [inhibitor, partial curve, poor fit].

**Q.** With COCCN1C(=O)c2ccccc2C(C(=O)Nc2nc3ccccc3s2)C12CCCCC2 (stereo not drawn) as the molecule, how does the Potency read?
**A.** Its Potency is active: 44.7 µM.

**Q.** For Cn1c(C(=O)N2CCc3c(n(Cc4cccnc4)n(-c4ccccc4)c3=O)C2)cc2ccccc21, which Potency is on record?
**A.** Its Potency is active: 28.2 µM.

**Q.** For COc1cc(NC(=O)Cn2c(C)cc3nc4n(c(=O)c32)CCCCC4)cc(OC)c1OC, which Potency is on record?
**A.** Its Potency is inconclusive: 70.8 µM [inhibitor, partial curve, poor fit].

**Q.** With Cn1cnc(S(=O)(=O)N2CCCCCCNC(=O)[C@@H]3CCC[C@@H]32)c1 as the molecule, how does the “activity change, negative = cytotoxicity” value read?
**A.** The value was inactive: 1.66%.

**Q.** Which Potency does the source give for Cc1ccc(CN2CC[C@@H]3[C@H]2C(=O)NC[C@H](CCC(=O)N2CCN(c4ccccn4)CC2)N3C)cc1 here?
**A.** Its Potency is inconclusive: 89.1 µM [inhibitor, single point].

**Q.** With O=C(c1cn[nH]c1-c1ccc(F)cc1)N1CCC(OCCOc2ccccc2)CC1 as the molecule, how does the Potency read?
**A.** Its Potency is inconclusive: 11.2 µM [inhibitor, full curve, poor fit].

**Q.** Which “activity change, negative = cytotoxicity” value does the source give for O=C(O)CC1CCCCN(Cc2ccccc2)C1=O (stereo not drawn) here?
**A.** The value was inactive: -17.3%.

**Q.** Which Potency does the source give for O=C(c1ccc(C(F)(F)F)cc1)N1CCc2nc(-c3ccccc3)nc(-c3ccc(Cl)cc3)c2C1 here?
**A.** The Potency was inconclusive: 50.1 µM [inhibitor, partial curve, poor fit].

**Q.** For COc1ccc(-c2cccc(C(=O)NCCc3ccccc3)c2)nn1, which Potency is on record?
**A.** Its Potency is inconclusive: 50.1 µM [inhibitor, partial curve, poor fit].

**Q.** Which Potency does the source give for CN(Cc1ccc(-c2ccccc2)cc1)C(=O)c1ccccc1Cl here?
**A.** Its Potency is inconclusive: 44.7 µM [inhibitor, partial curve, poor fit].

**Q.** With CNC(=O)c1cc(C2CC2)nc2onc(C3CCN(C(=O)NC4CCCC4)C3)c12 (stereo not drawn) as the molecule, how does the Potency read?
**A.** Its Potency is inconclusive: 44.7 µM [inhibitor, partial curve, poor fit].

**Q.** Which Potency does the source give for N#Cc1ccc(C(=O)N2CCCC(n3cc(-c4nc(C5CC5)no4)nn3)C2)cc1 (stereo not drawn) here?
**A.** Its Potency is inconclusive: 44.7 µM [inhibitor, partial curve, poor fit].

**Q.** With O=C1[C@@H]2C[C@@H](O)CN2C2(CN(Cc3c[nH]c4ccccc34)C2)C(=O)N1Cc1cccc(Cl)c1 as the molecule, how does the Potency read?
**A.** Its Potency is inconclusive: 89.1 µM [inhibitor, single point].

**Q.** With O=C(Nc1ccccc1)N1CCCC1Cc1noc(-c2ccccc2)n1 (stereo not drawn) as the molecule, how does the Potency read?
**A.** The Potency was inconclusive: 50.1 µM [inhibitor, partial curve, poor fit].

**Q.** Which Potency does the source give for COC(=O)[C@@H]1Cc2ncn(Cc3ccc(Cl)cc3)c2CN1S(=O)(=O)c1ccc(OC)cc1 here?
**A.** Its Potency is inconclusive: 56.2 µM [inhibitor, partial curve, poor fit].

**Q.** With COCC(=O)N1CC(C(=O)NCc2cccc(F)c2)CC(c2ccc(F)c(C)c2)C1 (stereo not drawn) as the molecule, how does the “activity change, negative = cytotoxicity” value read?
**A.** The value was inactive: -18.1%.

**Q.** Which Potency does the source give for COc1ccc(C(=O)N2CCN(c3cc(-c4ccccc4)[nH]n3)CC2)c(OC)c1 here?
**A.** The Potency was inconclusive: 44.7 µM [inhibitor, partial curve, poor fit].

**Q.** Which Potency does the source give for CCNc1cc(N2CCC(CCC(=O)Nc3cc(C)ccc3OC)CC2)ncn1 here?
**A.** The Potency was inconclusive: 35.5 µM [inhibitor, partial curve].

**Q.** Which Potency does the source give for COc1cccc(OCc2nc(C(=O)NCc3cn(C)nc3C)co2)c1 here?
**A.** The Potency was inconclusive: 35.5 µM [inhibitor, partial curve].

**Q.** With COc1ccc(F)cc1-c1ccc(CN)cc1 as the molecule, how does the Potency read?
**A.** Its Potency is inconclusive: 112 µM [inhibitor, single point].

**Q.** Which Potency does the source give for O=C(C1CCCN1C(=O)c1ccc(C(F)(F)F)cc1)N1CCC(c2ccccc2)CC1 (stereo not drawn) here?
**A.** Its Potency is inconclusive: 39.8 µM [inhibitor, partial curve, poor fit].

**Q.** With O=C(NC(C(=O)N1CCCCC1)C1CCN(C(=O)c2ccc(Cl)cc2)CC1)c1ccccc1 (stereo not drawn) as the molecule, how does the Potency read?
**A.** Its Potency is inconclusive: 70.8 µM [inhibitor, partial curve, poor fit].

**Q.** For O=C1NCc2ccccc2CC12CCCN(Cc1ccc(F)c(Cl)c1)C2 (stereo not drawn), which Potency is on record?
**A.** The Potency was inconclusive: 70.8 µM [inhibitor, single point].

**Q.** For COc1ccc(F)cc1-c1ccc(C(=O)NCCCn2ccnc2C(C)C)cn1, which Potency is on record?
**A.** Its Potency is inconclusive: 79.4 µM [inhibitor, partial curve, poor fit].

**Q.** With COc1ccc(-n2c(=O)c3c(n2Cc2ccccc2)CN(C(C)=O)CC3)cc1 as the molecule, how does the Potency read?
**A.** Its Potency is inconclusive: 112 µM [inhibitor, single point].

**Q.** With O=C1NCc2ccccc2CC12CCCN2Cc1cnc2ccccc2c1 (stereo not drawn) as the molecule, how does the “activity change, negative = cytotoxicity” value read?
**A.** Its value is inactive: -1.93%.

**Q.** For O=C(Cc1ccccn1)NC1CCN(C(=O)c2ccc(-c3cccs3)cc2)CC1, which “activity change, negative = cytotoxicity” value is on record?
**A.** The value was inactive: -27.5%.

**Q.** Which Potency does the source give for Cc1cccc(CN2CCCCCCN(C)C(=O)[C@@H]3CCC[C@@H]32)c1 here?
**A.** The Potency was inconclusive: 50.1 µM [inhibitor, partial curve, poor fit].

**Q.** For COc1ccc(-c2nc(C)nc3c2CN(C(=O)c2ccccc2OC)CC3)cc1, which Potency is on record?
**A.** The Potency was inconclusive: 50.1 µM [inhibitor, partial curve, poor fit].

**Q.** With CN(C)CCN(C)Cc1cn(Cc2ccccc2)nc1-c1ccc2c(c1)OCO2 as the molecule, how does the “activity change, negative = cytotoxicity” value read?
**A.** The value was inactive: 0.873%.

**Q.** For Cc1ccc([S+](=O)([O-])NC2CCCN(CCn3nc4n(c3=O)CCCC4)C2)cc1 (stereo not drawn), which “activity change, negative = cytotoxicity” value is on record?
**A.** The value was inactive: -3.29%.

**Q.** Which “activity change, negative = cytotoxicity” value does the source give for Cc1ccc(NC(=O)N2CCCN(CCn3nc4n(c3=O)CCCC4)CC2)cc1F here?
**A.** Its value is inactive: -12.8%.

**Q.** For CC(=O)Nc1cccc(C(=O)N2CC[C@@H](c3sccc3C)[C@H](O)C2)c1, which “outcome” value is on record?
**A.** Its value is “inactive”.

**Q.** With CC(C)(C)c1ccc(-c2noc(CNC(=O)CN3C(=O)CNC3=O)n2)cc1 as the molecule, how does the “activity change, negative = cytotoxicity” value read?
**A.** Its value is inactive: -5.66%.

**Q.** For O=C(Nc1ccccc1)N1Cc2[nH]cnc2C[C@H]1c1nc(-c2ccc3c(c2)OCO3)no1, which Potency is on record?
**A.** The Potency was inconclusive: 112 µM [inhibitor, partial curve, poor fit].

**Q.** With Cc1noc2c(-c3ccsc3)cc(-c3cccnc3)nc12 as the molecule, how does the Potency read?
**A.** Its Potency is inconclusive: 39.8 µM [inhibitor, partial curve, poor fit].

**Q.** With COc1ccc(CNC(=O)[C@@H](C)C2CC[C@@]3(C)CC[C@H](NC(=O)c4ccc(C#N)cc4)[C@@H](C)[C@@H]3[C@H]2O)cc1 (stereo partly drawn) as the molecule, how does the Potency read?
**A.** The Potency was inconclusive: 39.8 µM [inhibitor, partial curve, poor fit].

**Q.** With c1ccc(CCc2nc3nccc(-c4ccc5c(c4)OCCCO5)n3n2)cc1 as the molecule, how does the Potency read?
**A.** Its Potency is inconclusive: 56.2 µM [inhibitor, partial curve, poor fit].

**Q.** For COc1ccc(CC(=O)N2CCCN(c3ccc4nnc(C)n4n3)CC2)cc1, which “activity change, negative = cytotoxicity” value is on record?
**A.** The value was inactive: -18.4%.

**Q.** Which Potency does the source give for Cc1ccc(-c2noc([C@@H]3C[C@H](NS(=O)(=O)c4ccc5ccccc5c4)CN3C)n2)cc1 here?
**A.** Its Potency is inconclusive: 50.1 µM [inhibitor, partial curve, poor fit].
